Laboratory results reported in the supplement of paper PMC12889115.
Some of the results follow. Cut-off read from the data, not from the text of the source: active = 25% or less and inactive = the rest. Single values are uncertain, as repeats are few or missing.

Each compound was assayed on Salmonella enterica serovar Typhimurium SL1344 (assay: intramacrophage bacterial GFP load (SAFIRE), percent of DMSO control (% of DMSO); higher = more intracellular bacteria (less inhibition)). Conditions: 25 µM; system: infected RAW 264.7 macrophages.
Experimental: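 Secondary screen of the 553 primary hits at 25 µM. (i) S. Typhimurium SL1344 grown in Mueller-Hinton broth with 0.5 µg/mL polymyxin B, OD600 read after 18 h. (ii) SAFIRE assay: RAW 264.7 macrophages infected with S. Typhimurium sifB::gfp (MOI 30); compound added 2 h post-infection; cells fixed at 18 h; GFP-positive pixel fraction per macrophage imaged by confocal microscopy and expressed as % of DMSO control.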
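Note: compounds tested were the hits of an earlier 50 µM broth growth screen of a drug-like diversity library run with polymyxin B.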

SMILES | intramacrophage bacterial GFP load
CC1CN(Cc2nc3ccccc3n2C)Cc2cc(Cl)ccc2O1 (centres undefined) | inactive: 73.3
CCC1CN(Cc2ccc3ncccc3c2)Cc2cc(OC)ccc2O1 (centres undefined) | inactive: 35.7
Cc1cnccc1CNC(=O)C1(N(C)CCc2ccccc2)Cc2ccccc2C1 | inactive: 36.7
O=C(Nc1cccc(-c2ccc(F)cc2)c1)C1CCCN(Cc2cccnc2)C1 (centres undefined) | active: 7.59
Cc1nc(N2CCC(C(=O)N(C)Cc3ccc(C(F)(F)F)cc3)CC2)nc2ccccc12 | inactive: 53.3
O=C(C1CC12CCCCC2)N1CCc2onc(-c3ccccc3F)c2C1 (centres undefined) | inactive: 54.7
c1ccc(-c2nc(CNc3nc4nonc4nc3NC3CC3)cs2)cc1 | inactive: 232
CC(C)CS(=O)(=O)c1ncc(CN(C)C2CCCCC2)n1Cc1ccccc1 | active: 14.6
COc1ccc(C(=O)N(Cc2ccc(OC)c(OCc3cccs3)c2)C2CCCC2)c(OC)c1 | inactive: 119
CCS(=O)(=O)c1ncc(CN(C)C2CCCCC2)n1CCCc1ccccc1 | inactive: 26.2
O=C(COc1ccccc1Cl)N1CCCC(Nc2ccc3c(c2)OCCO3)C1 (centres undefined) | inactive: 102
CCCc1ccc2oc(C(=O)NCCc3cccnc3)c(C)c2c1 | active: 20.1
COc1cccc(CC(C2CCN(C(=O)CC3CCCCC3)CC2)N(C)C(=O)c2ccsc2)c1 (centres undefined) | inactive: 35.6
Cc1ccc(-c2n[nH]cc2CN2CCN(c3ccc(Cl)cn3)CC2)cc1C | active: 6.58
